Test results as given in the supplement of paper PMC11417369.
± gives the standard deviation of the averaged measurements. Some of the results follow.

test system: PfAP2-LT AP2 domain (GST-tagged); assay: gcPBM binding intensity (ln(normalized median fluorescence intensity)); higher = stronger DNA binding
In short: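 Alexa488 anti-GST antibody, scanned at 488 nm, detected GST-tagged P. falciparum DNA-binding domains that had been expressed in E. coli and incubated for 1 h on an Agilent 4 × 180k array. The array carried primer-extended double-stranded 36-bp intergenic genomic probes and negative controls. Binding intensity is the highest Masliner-normalised natural-log median intensity across replicate spots of either orientation of each probe.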

In order of rising “gcPBM binding intensity (ln)” value:
1. TTAAAATTTTAAAAATTTTAATTTTACAAAAAAAAT [TGCATGCA_negctrl_site227]  7.92 ± 0.48
2. AAATTTTTTAATTTTTCTCATTTAATTTAAAAATTA [GTGCAC_negctrl_site155]  8.09 ± 0.41
3. ATATAAATAAAAAAAAAAAAAAAAAAAAAAAAAAAA [CACACA_negctrl_site972]  8.12 ± 0.3
4. TTTCTTTCTTTCTTTTTTTAAATATTTTTTAAAAAT [TGCATGCA_negctrl_site206]  8.21 ± 0.55
5. TTATACATTTGTAAATAAATAGAACTGTATTTTTTT [TGCATGCA_negctrl_site397]  8.29 ± 0.46
6. TTTTGTCTTCAAATCAAATGTATATAAAAAAAATAC [CACACA_negctrl_site1717]  8.31 ± 0.34
7. TGTTTATTTTTAAAAAGTACATATATAAAAAATATC [XGTACX_site4902]  8.35 ± 0.32
8. TGCCAATTTTTAAAAACATGCATTATATAGAATAAA [TGCATGCA_site872]  8.38 ± 0.42
9. AAAAAAAAATACTACTGTACTTTTTTTGGACATCTA [XGTACX_site1096]  8.4 ± 0.49
10. TTTTTAACTAACATATCAATTCCATACGTCGTCAAA [CACACA_negctrl_site560]  8.41 ± 0.69
11. AAAAAAAAAAAAAAAAAAAAAAAAAAAAGTTAAAAA [TGCATGCA_negctrl_site74]  8.43 ± 0.3
12. GTTAAGAATATATAATGTACTTATTTTAATATAGTA [XGTACX_site6088]  8.46 ± 0.49
13. AATAACTTTTTGAGATGTACATTTTTAATTCGTAGA [XGTACX_site8455]  8.46 ± 0.34
14. ACTCGCATATTTAAATGTACTTAATTAGAAGAAAAA [XGTACX_site3304]  8.47 ± 0.42
15. TTATTCGAACAAAGGAAAAAATATATTCAAAGGAAA [TGCATGCA_negctrl_site215]  8.51 ± 0.59
16. TAAAATATTGTTATTACATGCAACCTTATGAAAAAT [TGCATGCA_site706]  8.53 ± 0.28
17. TTTAAAAATTTGATCAAACACACGTTGCATAAATTA [CACACA_site3945]  8.57 ± 0.38
18. TAAAATATATATATGTGTACATAACATATAATTTTT [XGTACX_site1725]  8.6 ± 0.46
19. TGATATTATTATAAGGTGCTTAAAAATAAAGATAAT [GTGCAC_site9539]  8.62 ± 0.45
20. TCTATATAATACCAATGTACATAGTTTTAAGCATAA [XGTACX_site1889]  8.62 ± 0.44
21. AATAATCATTTTCATAGTACGTATGATTAGAAAAAA [XGTACX_site2589]  8.63 ± 0.47
22. CTCTGTTGTCTTAGTTGTACAATAGAAAAAAATAAT [XGTACX_site7043]  8.65 ± 0.38
23. ATAAAAAAGCAACATCATATGTTTTTATAGAGTATT [CACACA_negctrl_site745]  8.65 ± 0.41
24. TTATTTAGTATATTATGTACATACAATGCCTGGGAA [XGTACX_site4578]  8.69 ± 0.33
25. ATTCATAAAAAGAGGTGTACATTAATATAATATATA [XGTACX_site8283]  8.7 ± 0.43
26. AAAAGTATATATTCAGTGCATAGTCTTTAAATATAA [GTGCAC_site9522]  8.7 ± 0.38
27. AGAATTTTAGATTTAGCACACATTTTTTTTTTTTTT [CACACA_site4081]  8.71 ± 0.47
28. ATCATCTTTATTCAAGTGCACTGAAAATTTTTTATA [GTGCAC_site9801]  8.71 ± 0.38
29. TTAAATGAAAAATGGGGTACATATATACAAATATAT [XGTACX_site5931]  8.72 ± 0.45
30. ATTTATACGTAATATGCATAAATATAAATATATATA [XGTACX_negctrl_site133]  8.74 ± 0.35
31. TTTTGATTGTTATTCGTATATTATTTTATGATTATA [CACACA_negctrl_site1593]  8.74 ± 0.47
32. AAAGGTTCACATTATATAGTTATGTAATATATATGT [CACACA_negctrl_site542]  8.77 ± 0.4
33. AATTAGATTTACTGAAGTACTTAATTTATTTTATTA [XGTACX_site3407]  8.77 ± 0.47
34. ATAAGCATCTGGATATGTACTTATTCCTTTAAAGAT [XGTACX_site6225]  8.77 ± 0.37
35. TTTTCAATATATAGAGCATGCGCATCCACAAATATG [TGCATGCA_site380]  8.77 ± 0.45
36. GAAGGAATATACAATTGTACTTGGCAAAAAAAAAAA [XGTACX_site1884]  8.78 ± 0.54
37. AAAATTAAAATAGTAATACACACTTCATAGGAAATG [CACACA_site1762]  8.79 ± 0.39
38. TATTAAAAATATTATGTACACACATTTTAGATATTT [CACACA_site8549]  8.79 ± 0.51
39. AAATTAAAGATAAAAGTGCAAAATTATAAATTTATT  8.79 ± 0.49
40. AGTATAAAAATATATTTACACACTATATATATCGAA [CACACA_site8494]  8.81 ± 0.4
41. AATAGTGTATAAATTTGTACATATAATTAAAAGGAA [XGTACX_site1143]  8.81 ± 0.47
42. ATAAATTGTAAAATGTGTACGCAGATATTGCGTATT [XGTACX_site332]  8.81 ± 0.35
43. ACAAGTTAAAATATTACACACATATAAATATTTATA [CACACA_site7467]  8.81 ± 0.43
44. TATTGTAAGAAAGGCACACAGATAAAATTATTATAT [CACACA_site2921]  8.83 ± 0.51
45. TTTCGCTTTATTTATGCATGCAAATAAGTTGATATT [TGCATGCA_site724]  8.84 ± 0.22
46. AAATACTTGTCATATTGTACATGTTTGTGATATATA [XGTACX_site3185]  8.85 ± 0.3
47. TTTTTTCTCTGTGGCTGTACTTTGAAGATATTTTAT [XGTACX_site8243]  8.87 ± 0.47
48. AGGTACTTTTTTAAAACACACATATAACATATACAC [CACACA_site6629]  8.88 ± 0.4
49. ATATAAAATAATAAGGGTACAGGTCTCTGCGATGTT [XGTACX_site786]  8.88 ± 0.38
50. CAAAATATTTTTATAACACACATATTTATAACGTGC [CACACA_site6659]  8.88 ± 0.36
51. AAATTAATGAAATATACACACATATATAAATATATA [CACACA_site4378]  8.9 ± 0.42
52. TTTTCATATTATAGTGCACACAAAAATATATATATG [CACACA_site8929]  8.91 ± 0.41
53. ACTTTAATAATTCACTTATTTTCTTATTATATTATT [CACACA_negctrl_site556]  8.92 ± 0.47
54. TATTGTTGTTCATGTACACACTATAATAAAAGCAAT [CACACA_site6148]  8.93 ± 0.42
55. AAAACAAAAATATAAACACACATACATTGGTTTTCT [CACACA_site5405]  8.96 ± 0.48
56. AATAATCTATATTGTACACACAAAATGGGAAAAAAA [CACACA_site6969]  9 ± 0.47
57. TATATATAACATTGTACACACAAAGAAATAATATTA [CACACA_site3035]  9 ± 0.45
58. ATAATTATATGGCTAGCACACAATAAATAATTATAT [CACACA_site3815]  9 ± 0.45
59. ATATTTCATCTAGCTACACACATATAATAAATTATT [CACACA_site4094]  9 ± 0.44
60. ATATATTTATATATTACACACAATATTGTACAGATA [CACACA_site8215]  9.01 ± 0.4
61. AACAAGAAATAATCACGTACACATTATAATAACTAA [XGTACX_site8184]  9.02 ± 0.41
62. ATATAAGTGTATCTAACACACAAATATATAAAAATG [CACACA_site1956]  9.03 ± 0.38
63. AAAAAAGGAAAAGATACACACCGTAAATTAAAATTT [CACACA_site5908]  9.06 ± 0.43
64. GGATTTATTTTATATACACACATACCTATATTTATA [CACACA_site7084]  9.06 ± 0.39
65. ATATTGTATTTATGTACACACATTTTTGGAATATGA [CACACA_site4861]  9.07 ± 0.3
66. AACTTGTGTGGATATTGTACTAACAATATGTATGAT [XGTACX_site6302]  9.1 ± 0.39
67. CTTTAATATTTTATTTCACACACATAAATGCCCCAA [CACACA_site8569]  9.11 ± 0.48
68. TATGCTACATTATATGTACACACATATACATATATA [CACACA_site8199]  9.11 ± 0.42
69. AACAAGTTGCATGGTGCACACATGTATTTATATCTA [CACACA_site5414]  9.14 ± 0.46
70. ATTTTTGTAAATACATGTACATATATATGCATATCC [XGTACX_site6353]  9.14 ± 0.53
71. TATATACCGATATATACACACAAATACATAAGCTTC [CACACA_site6760]  9.18 ± 0.36
72. AGTAATAGTTTGTGCACACTCAAGTATATCATAGAT [CACACA_site6082]  9.24 ± 0.29
73. TACAACAATTTTTGCACACACCAAAACATAAAATAA [CACACA_site4964]  9.26 ± 0.36
74. AATGGAAAATTATTAACACACACATATAAATATATA [CACACA_site7899]  9.27 ± 0.34
75. AAGAAAAATATTCGTGTGCACAGAAGTATATGTGTG [GTGCAC_site9814]  9.36 ± 0.44
76. GGATAGATAATAGGGGGTACAAATATACATACATAT [XGTACX_site5089]  9.38 ± 0.2
77. TGATTATACGCACGCGCACACACAACCAAAAAAAAA [CACACA_site3537]  9.4 ± 0.38
78. TCTTTTAAACAGTACACACACACATCTATATTTATA [CACACA_site6559]  9.41 ± 0.31
79. TACATATATACATACACACACATATAACCAATGTAG [CACACA_site2192]  9.55 ± 0.23
80. AGGATATGCAGACACACACACATATAGATTTATATA [CACACA_site7100]  9.56 ± 0.43
81. ACCCCCAATACGGAAACACACAAGTTATTTTATCAT [CACACA_site8874]  9.6 ± 0.21
82. ATATATATATATATATGTACATATTGTATTAATTAT [XGTACX_site1919]  9.67 ± 0.014
83. AAAAAAAAAGATCACACACACATAAATATAAACAAA [CACACA_site5285]  9.72 ± 0.22
84. AATATAAACAGACACACACACATATAGATTTATATT [CACACA_site7382]  9.87 ± 0.35
85. ATTAAAAGGGGGTTTACATGTGTGTGTGTAATATGG [TGCATGCA_negctrl_site293]  9.91 ± 0.15
86. TTTTAATGAAAACACACACACACATATATATATATA [CACACA_site5295]  9.93 ± 0.18
87. ATATGTTACAGACACACACACACATAAAAAAACAAA [CACACA_site3248]  9.96 ± 0.28
88. ATAATTTGGAAACACACACACACACCCACATATATA [CACACA_site2286]  10.28 ± 0.064
